Experimental data reported in the supplement of paper PMC11417369.
This is one part of the list.

test system: PF3D7_0420300 AP2 domain 1 (GST-tagged); assay: gcPBM binding intensity (ln(normalized median fluorescence intensity)); higher = stronger DNA binding
Procedure, shortened: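 In this array assay, P. falciparum DNA-binding domains with a GST tag, expressed in E. coli, were applied for 1 h to primer-extended double-stranded 36-bp intergenic genomic probes and negative controls on an Agilent 4 × 180k array. Bound protein was visualised with Alexa488 anti-GST antibody at 488 nm. Binding intensity is the highest Masliner-normalised natural-log median intensity across replicate spots of either probe orientation.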

Sequence | gcPBM binding intensity (ln)
TAAATCACAAAATTATGTACTAAGAAGGAGCAACAT [XGTACX_site6742] | 9.39
TATACCTTAATATACACACATACATATATATATATA [CACACA_site1339] | 9.57
TATATACATTTTTATGTGCACATTTTATTTTTAAAT | 9.33
TAACAAAGTAAAAGAACATGCAAACACGCACACAGA [TGCATGCA_site374] | 9.73
GGGGAAAAAGCAGGTTGTACAGTGATGTCCATATAA [XGTACX_site7606] | 9.39
AGTGTATTAAATTTTGAACACACAAAATAAAACATA [CACACA_site8483] | 9.43
TTTTAATTTAAAAATTAATTTATATATATATATATA [TGCATGCA_negctrl_site447] | 8.89
TTTAGACTTTTCTATAGTACATATTATATATATATA [XGTACX_site6532] | 9.08
AATTTATTAATACAAAGTACTTTCTAATATGAATTT [XGTACX_site8013] | 8.92
GAAAAATTAAAATGTGGTACAATAAAATTTTATTCA [XGTACX_site5030] | 9.22
ATATTTATACTATACACACCCAATTTAAAAAAAAAT [CACACA_site1163] | 9.62
TTATTGCGCACAATTTGTACATATATATATATAGAA [XGTACX_site7573] | 9.09
GTAAGAAACAGACACACACACATATAAATATAAATA [CACACA_site6515] | 10.1
TATTGAAAAAGTGGAAAAAAGTACATCATACGGGAA [CACACA_negctrl_site1091] | 9.66
CGTAATAATTAATGTTGTACCCACCAAAAAAATTAA [XGTACX_site8592] | 9.08
ATTACATTTTTGTTTTGTACATATATTTTATAAACA [XGTACX_site494] | 9.34
TATATTTATATATATACACACATAATAAAAAATATA [CACACA_site844] | 9.45
TTGTTTTGTAATAAAAAAAAAATAATATAATATAAT [XGTACX_negctrl_site300] | 9.11
GAAATATTGAAACACACACACAAACATATATATATA [CACACA_site1911] | 9.96

Sequence | gcPBM binding intensity (ln)
TTTATAGTTTTAAACAAAGTAATACAAATGTATATA [CACACA_negctrl_site1716] | 8.87
TATAAAAAAAATAAAATAAAATAAAATAGAAAAATA [TGCATGCA_negctrl_site109] | 9.37
AACATTATCAAATAAACCATAAATCAATTCAATATG [CACACA_negctrl_site696] | 9.39
AAACGTTTATTTTATTGTACATATGAAAAATGCTTC [XGTACX_site6896] | 9.19
ATATTTTTTTTTTTCACACACATTTAGATTGTATTA [CACACA_site3137] | 9.86
AAAAAAAAAAAAAATTGTACGGATTCTTTTTTTTTT [XGTACX_site2898] | 9.1
TTGTATAAAAAACTAAAAAATATAAAATAATAAGTG [CACACA_negctrl_site1704] | 9.32
AAAAAAATATATTCCTAATTTATGATTAAAAGGAAT [CACACA_negctrl_site751] | 8.98
ATAAATTAAACAAACACACACGTTCTTTTATTTACT [CACACA_site4556] | 9.66
TTTTTTTTTGGGTGTACACATGAATATATATTTTTT [CACACA_site5254] | 9.28
AGAATTATATCATGGTGTACTTATTTGTTTATTTCT [XGTACX_site5795] | 9.57
AAATTTGGTGAAGGATGTACTTTACCTAATACTTGT [XGTACX_site4825] | 9.21
AAAACAAAAAAATTTTGTACGAAACAATACTGTAAG [XGTACX_site7992] | 9.11
TATATATATTGTTATTGTACACAAATATAGGAAATA [XGTACX_site7110] | 9.23
ATAAATAGAATAAAATGTACATGTAATACATATATA [XGTACX_site5475] | 9.39
TTCTTAAAAAATCAAACACACATATATATATACATA [CACACA_site2296] | 9.44
GTTTAGATAAAAGGGCGTACATCTATTTTTGACTAA [XGTACX_site7170] | 9.06
AAAAAAAAAAAAAAAACACACAATTGAATTATTAAG [CACACA_site2864] | 9.33
TTTTATTATTAAACATGTACCCATATTATTGTTATG [XGTACX_site5563] | 9.39

Sequence | gcPBM binding intensity (ln)
AAAAAAAAATAAAAAAGTACAGGTAAATATATATAT [XGTACX_site5812] | 9.66
AAAAAAAAAAAATATATATATATATATATAATATTT [GTGCAC_negctrl_site678] | 8.82
GAATAAATAAAAATATGTACATAAATATATATATAT [XGTACX_site8858] | 9.5
AAGACAAATATGTATTGTACGAACGCTTTTTAATTA [XGTACX_site1961] | 9.06
ATACTTTAAAATAATACACACATGGAAAATAAAATT [CACACA_site697] | 9.65
TTTATAAAATATCTTTCACACATTACTATGTATTAT [CACACA_site5148] | 9.32
ATAAAAGTTTAATATTGTACGAACATGCGTTTCTAA [XGTACX_site1487] | 8.99
TAACATTACTCTTAACTCTTTTGGATACCAACTTAT [XGTACX_negctrl_site82] | 9.41
AAATATTTATAAATTGCACACAAATAATAACATTAT [CACACA_site8737] | 9.4
ATAATAATATATACATGTACATATATATATATATAT [XGTACX_site3455] | 9.26
AAATAAAAAGTAAAGCGTACAAATGATCAAATAATA [XGTACX_site7898] | 9.79
TAATCAACAAAATCTACACACTAAAATGAAATATAA [CACACA_site3749] | 9.55
AGAAGTGTAAAAGTTACACACACAAACTTGTCATTT [CACACA_site4613] | 9.75
CCCAGGTGCTCGTAACGTACTTACATCAAATATTAT [XGTACX_site4617] | 9.31
TATAAATAGATATATACACACTTGTGCAGAATATTA [CACACA_site7112] | 9.41
AGGCGTGAAATATACGTACACACATTATTTATATTT [CACACA_site2558] | 9.54
ATATATATACAACAAGCATGCAGTAATTTTTTTTTT [TGCATGCA_site728] | 9.22
CTATAATAACATAACACACACATGTATTTATAGGTG [CACACA_site6298] | 9.73
